Test results from ChEMBL document CHEMBL4888484, “Replenishing the malaria drug discovery pipeline: Screening and hit evaluation of the MMV Hit Generation Library 1 (HGL1) against asexual blood stage Plasmodium falciparum ,using a nano luciferase reporter read-out” (2022).
Among all 150,000 compounds or so, about 540 (0.36%) showed an effect of 50% or more. Some of the results follow.

test system: Plasmodium falciparum; assay: Primary screen in NF54 nanoGlo assay, in single point, at 2uM, 72h; a lower Z score goes with more inhibition; assay type: functional, Erythrocyte; settings: timepoint 72 hour

Structure (SMILES)	% Inhibition	Z score
O=C(CCc1cc2n(n1)CCN(C(=O)c1cnccn1)C2)NC1CCCC1	-2%	0.38
COCCN1CC2(CCC1=O)CCN(c1cc(C)nc(N)n1)CC2	-1%	0.1
COCCN1CC2(CCC1=O)CCN(C(=O)c1cc(Cl)cn1C)CC2	-2%	0.48
Cc1ccc(O)c(C(=O)N2CCC3(CC2)C[C@H](O)CNC3=O)c1	-14%	2.59
COc1ccc(OC)c(CNC(=O)C2CCN(c3ccc(-c4cccc(F)c4)nn3)CC2)c1	-5%	0.64
Cn1cnnc1CN(Cc1cccnc1)Cc1ccco1	-6%	0.82
CS(=O)(=O)NCCCNc1c(F)cccc1C(F)(F)F	-5%	0.86
Cc1cc(F)ccc1NC(=O)c1cc(-c2ccc[nH]2)n[nH]1	-6%	0.74
COCC1(NC(=O)C2CCC(F)(F)C2)COc2ccccc2C1 (stereo unspecified)	3%	-0.41
Cc1ccc(NC(=O)CN2CCC(CNC(=O)[C@@H]3CCC(=O)N3)CC2)cc1C	-1%	0.18
Cn1ccnc1CN1C(=O)CO[C@H]2CN(Cc3ccccc3)C[C@H]21	-11%	1.41
Cn1cc(CNC[C@]2(COc3ccc(S(C)(=O)=O)cc3)C[C@@H](O)[C@@H](O)C2)c2ccccc21	-1%	0.16
Cc1c(C(=O)N2CC(C)(C)C2(C)C)cc(Br)cc1S(N)(=O)=O	-5%	0.82
O=C(C1CCN(C2CCN(CCCc3ccccc3)CC2)CC1)N1CCCC[C@@H]1CO	-5%	0.68
Cc1cc(=O)c(C(=O)N(Cc2ccncc2)CC2CCCCC2)c[nH]1	-3%	0.3
Cc1cc(C)cc(OCC(=O)Nc2ccn(C)c(=O)n2)c1	8%	-0.91
Cc1nnc(NC(=O)N[C@@H](C)c2ccncc2)s1	-14%	2.71
COCCN1CCN(Cc2cnc(N(C)C)nc2)[C@H]2CS(=O)(=O)C[C@H]21	-4%	0.85
CC(C)NC(=O)CN1C(=O)CN(C(=O)NCc2ccc(F)cc2)c2ccccc21	7%	-0.97
CCn1cc(C(=O)N(C)[C@@H](C)c2ccccc2)c(-c2cnn(C)c2)n1	5%	-0.66
Cc1ncn(CCNC(=O)c2c[nH]c(=O)c(Cl)c2)c1C	6%	-1.04
COc1ccc(NC(=O)N(C)C[C@H](O)COCCOC(C)C)cc1OC	8%	-1.46
CC(C)(C)Cc1nc(-c2cccc(C(=O)N3CC(O)(C4CC4)C3)c2)no1	-3%	0.63
O=C([C@@H]1CCCCN1C(=O)c1cccnc1)N1CCOC2(CCC2)C1	-6%	0.72
O=S(=O)(c1ccc(-c2cncs2)cc1)N1CCNCC1	-3%	0.4
C[C@@H](CNC(N)=NC1CC1)c1ccccc1	4%	-0.45
Cc1cnc(CCNC(=O)c2cn(C)cn2)n1C1CC1	-7%	1.06

Structure (SMILES)	% Inhibition	Z score
COCCNC(=O)NC1C(C)CCCC1C (stereo unspecified)	-14%	2.21
COc1c(Cl)cc(C#N)cc1Cl	-9%	1.17
COc1ccc(CN(C(=O)Cc2ccc(Cl)c(Cl)c2)C2CC2)c(OC)c1	2%	-0.29
COC(=O)[C@H](OC(=O)c1cnn2c(C(F)(F)F)cc(-c3ccccc3)nc12)c1ccccc1	-9%	1.23
CCn1c(=O)c(N2CCN(C(=O)Nc3cccc(C)c3C)CC2)nc2ccccc21	29%	-4.21
COc1ccc(CCNC(=O)[C@H]2CCCN(c3nc(C)nc4onc(C)c34)C2)cc1OC	-9%	1.14
Cc1ccc2c(c1)NC(C)(C)c1ssc(=S)c1-2	-5%	0.98
CN(C)C(=O)N1CCN(Cc2ccc(F)c(F)c2)[C@@H]2CS(=O)(=O)C[C@@H]21	-9%	1.88
CN1C(=O)CCC(C(=O)N2Cc3ccccc3C2)C1c1cnn(C)c1 (stereo unspecified)	-11%	1.3
CC1(C)CC(NC(=O)OC(C)(C)C)(C(=O)O)C1	1%	-0.1
COc1ccc(C(=O)N2CCN(c3ncccc3-c3nnc(C(C)C)o3)CC2)c(C)c1	-25%	2.37
Cc1nc2snnc2c(=O)n1Cc1ccccc1	-1%	0.2
O=C(c1cc(Cl)sc1Cl)N1CC[C@@H](c2cccs2)S(=O)(=O)CC1	-20%	3.49
Cc1nccn1CC1CCN(Cc2cccnc2N)CC1	-5%	0.93
O=C([C@@H]1CCCCN1S(=O)(=O)c1cccc(F)c1)N1CCCC1	-2%	0.42
CC(=O)N1CCC[C@@](NC2CCCCC2)(c2nnnn2CCC(C)C)C1	-4%	0.46
Cc1noc(COC2CN(C(=O)NCC(F)(F)C(C)(C)C)C2)n1	-18%	1.96
NC(=O)C1CCN(C(=O)c2coc(NC(=O)c3ccsc3)n2)CC1	-2%	0.31
Cc1cc(C)n(CCC(=O)NC[C@H]2CCN(c3ccccc3C)C2)c(=O)n1	-9%	1.61
COCCn1c(C)cc(=O)c(C(=O)N2CCN(c3cccc(Cl)c3)CC2)c1CC1CCCC1	-12%	1.53
Cc1ncccc1C(=O)NC[C@@]12CCCC=C1N(Cc1ccccc1)C(=O)CC2	-2%	0.26
COCC1(O)CN(C(=O)c2cc(F)c(Oc3ccccc3)c(F)c2)C1	2%	-0.42
CC(NC(=O)N1CC2CCC1C2)c1cccc(-n2cccn2)c1 (stereo unspecified)	-14%	1.67
O=C1NC2(CCCC2)C(=O)N1Cc1cnn(-c2ccccc2)n1	1%	-0.1
O=C(Nc1ccc2c(c1)OCCO2)[C@@H]1CCCc2ccccc21	-2%	0.35
CC[C@H]1COCCN1C(=O)Nc1ccc2c(c1)N(CC)CC2	-7%	0.75
